No constants are given. Whether binding was seen depends on the method and setting. Some binding calls cover weakened binding; strength is not graded here. Tags and fused reporters may be left off the sequences shown. Each block holds one binder with its values, some of them ahead of it.
Assays:
[1] = target: T1, BD-FRH (Metarhizium robertsii FRQ-interacting RNA helicase FRH in the bait vector pGBKT7) (Metarhizium robertsii) (UniProt E9F8I5); assay: two-hybrid; Matchmaker GAL4 Two-Hybrid System 3; preys in pGADT7 (AD), baits in pGBKT7 (BD); Y187 x Y2HGold diploids spotted (10^5, 10^6, 10^7 cells/mL) on SD/-Leu/-Trp/X-α-Gal/AbA and SD/-Leu/-Trp/-Ade/-His/X-α-Gal/AbA plates, 3 d at 30 °C
T1 sequence: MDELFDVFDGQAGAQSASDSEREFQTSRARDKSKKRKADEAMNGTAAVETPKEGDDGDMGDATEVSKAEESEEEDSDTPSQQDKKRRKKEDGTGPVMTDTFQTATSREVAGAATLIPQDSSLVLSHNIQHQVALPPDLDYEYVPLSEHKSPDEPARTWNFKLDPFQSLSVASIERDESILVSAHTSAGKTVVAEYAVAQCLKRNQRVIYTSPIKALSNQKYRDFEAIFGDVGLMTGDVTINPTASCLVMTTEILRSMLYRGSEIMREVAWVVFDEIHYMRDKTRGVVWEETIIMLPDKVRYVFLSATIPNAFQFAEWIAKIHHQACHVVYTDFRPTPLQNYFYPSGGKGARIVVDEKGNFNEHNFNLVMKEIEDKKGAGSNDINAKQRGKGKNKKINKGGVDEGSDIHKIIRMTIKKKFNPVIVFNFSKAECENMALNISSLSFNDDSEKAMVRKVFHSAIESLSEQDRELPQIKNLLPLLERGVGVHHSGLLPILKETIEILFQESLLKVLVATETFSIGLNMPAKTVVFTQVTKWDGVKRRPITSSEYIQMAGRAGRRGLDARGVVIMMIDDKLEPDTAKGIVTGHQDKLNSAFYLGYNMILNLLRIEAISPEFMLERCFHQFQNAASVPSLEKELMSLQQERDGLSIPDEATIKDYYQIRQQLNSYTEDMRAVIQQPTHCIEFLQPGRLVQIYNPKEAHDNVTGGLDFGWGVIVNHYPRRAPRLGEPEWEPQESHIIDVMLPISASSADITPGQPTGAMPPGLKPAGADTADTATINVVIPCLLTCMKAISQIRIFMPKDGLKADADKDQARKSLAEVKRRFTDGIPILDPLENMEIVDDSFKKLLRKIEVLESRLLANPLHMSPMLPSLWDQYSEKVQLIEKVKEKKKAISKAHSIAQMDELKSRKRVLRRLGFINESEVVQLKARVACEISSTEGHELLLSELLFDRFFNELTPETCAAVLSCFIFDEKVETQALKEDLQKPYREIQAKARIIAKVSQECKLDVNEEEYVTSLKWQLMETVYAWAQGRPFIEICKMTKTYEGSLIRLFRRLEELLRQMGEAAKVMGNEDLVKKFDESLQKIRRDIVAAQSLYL

[2] = target: T2, BD-FRQ (Metarhizium robertsii frequency protein FRQ in the bait vector pGBKT7) (Metarhizium robertsii) (UniProt E9EXC4); assay: as above
T2 sequence: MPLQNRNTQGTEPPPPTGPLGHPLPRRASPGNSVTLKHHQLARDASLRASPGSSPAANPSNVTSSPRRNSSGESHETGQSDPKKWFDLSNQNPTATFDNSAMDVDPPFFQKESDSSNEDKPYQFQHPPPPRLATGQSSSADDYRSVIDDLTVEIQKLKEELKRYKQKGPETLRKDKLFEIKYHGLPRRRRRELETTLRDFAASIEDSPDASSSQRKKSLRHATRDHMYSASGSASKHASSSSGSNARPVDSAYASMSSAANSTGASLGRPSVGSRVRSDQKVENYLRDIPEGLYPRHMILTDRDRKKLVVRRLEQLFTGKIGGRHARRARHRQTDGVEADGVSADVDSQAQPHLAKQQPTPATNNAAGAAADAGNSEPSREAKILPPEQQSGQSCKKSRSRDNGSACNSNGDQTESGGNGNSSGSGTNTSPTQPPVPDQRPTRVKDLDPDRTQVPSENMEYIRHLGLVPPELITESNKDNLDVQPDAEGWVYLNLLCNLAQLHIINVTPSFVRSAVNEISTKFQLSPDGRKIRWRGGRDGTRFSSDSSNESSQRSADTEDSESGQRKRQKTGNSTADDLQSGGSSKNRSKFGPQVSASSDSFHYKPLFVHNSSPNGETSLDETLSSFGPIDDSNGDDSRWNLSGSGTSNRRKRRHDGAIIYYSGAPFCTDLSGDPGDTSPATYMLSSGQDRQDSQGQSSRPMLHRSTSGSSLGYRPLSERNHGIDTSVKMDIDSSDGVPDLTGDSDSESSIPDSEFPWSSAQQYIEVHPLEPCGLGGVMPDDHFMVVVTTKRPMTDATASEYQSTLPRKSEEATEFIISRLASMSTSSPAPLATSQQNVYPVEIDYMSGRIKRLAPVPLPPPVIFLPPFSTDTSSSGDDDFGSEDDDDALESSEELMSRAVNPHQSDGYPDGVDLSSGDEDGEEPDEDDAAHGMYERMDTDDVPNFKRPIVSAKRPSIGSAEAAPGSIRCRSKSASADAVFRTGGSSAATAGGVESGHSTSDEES

binding [1]: no binding | binding [2]: no binding
B1: AD-WC2 (Metarhizium robertsii white collar protein WC2 in the prey vector pGADT7) (protein, UniProt E9F591 1-445)
chain: MDPFGDVSMNIDSGNGAQVMPVPSSMPANTNEDVAMMNDADAQASSSNVAQPQDDPLAMAVEKVPGAGPLPPRTFAQMSLNGGGSSGSASTLTDFTKRRNWPAKVVEELKDFLHILDANGRIKYASGSIFGISGYTAAEVQDVFLKDFIHPDDQGVFVAELNESIASGSPLRMFYRFKTKSGNYTVLETVGHAHIAAARFAPNPNNQSPFCQAVFMMSRTYPTKNAGLLDSFLEHKMENERLRRRISELRREEEAETEESNRQWVQSQEGRSDMTPSETTGTSTPFFRNASSTSDMQADGSALTRENLEGVAAGRNSDSLGDKMARYEGSTHAETIELLTGLRYLEGERSRGITTGGSSPTLIRGDAGIAIPIDRDARAGEKKKKLKTAEEYVCTDCGTLDSPEWRKGPNGPKTLCNACGLRWAKKEKKKTNASQKGAVADQMMG

binding [1]: binds
B2: AD-FRQ (Metarhizium robertsii frequency protein FRQ in the prey vector pGADT7) (protein, UniProt E9EXC4 1-1005)
chain: T2 sequence

binding [1]: no binding | binding [2]: binds
B3: AD-WC1 (Metarhizium robertsii white collar protein WC1 in the prey vector pGADT7) (protein, UniProt E9EWQ4 1-1004)
chain: MDDYYKTNALPPQEGQRQMPQQHEGQQQQQQQPSGNVIDMINRSSVSGSQMPLQPPPSAMPQLLQNQPMISGDSLDDIIRNNHTEMHRRKSMPHAYGSPLMQDENPRRMSSIAASEDVMAFDPSQHDLGNFQFSQPVGSSFHGINPSLEMTDQMGGFVTDATDYSGISADLIGPMNPPPFGNVELSQMPNEPSLSLFPPSPVPGAGSGVRPMNSGFVSGQIPNLSATFGTEPAPSSSTLTVTSNTLPGSIDDHPDGMMHISTSQLNAVNPPASRVPETMAANPVSSNLGQPLPHSLSRHISSESGITQPSSTSGPTTPATTSTPRESKEKTIYSKSGFDMLKALWLVATRKDPKIHLGAVDMSCAFVVCDVTMNDCPIIYVSDNFQNLTGYSRHEIVGQNCRFLQAPDGKVEAGSKREFVDDGAVYNLKNMIQEGREVQQSLINYRKGGKPFLNLLTMIPIPWDTDDIRYFIGFQIDLVECPDAISGQELGGVKVNYKHNDIGQYIWTPPASSQWQPENGQTLGVDDVSTLLQQFSPKGLVSDWHKQSWDKMLLENTDDVVHVLSLKGLFLYLSPSSKRVLEYDAIDLVGNSLSSVCHPSDIVPVTRELKDATASAQVNIVFRIRRKQSGYTWFESHGSLFVEQGKGRKCLILVGRKRPVFALSRKNLESNGGIGDSELWTKLSTSGMFLFVSSNVRSLLDLQPESLVGTSIQELMRKESRPDFGRKIEAARRGKIVSCEHEVQNRRGQGLRALTILYPGDAPEGQKPSFLLAQTKLVKAKNVVLATATSNSKAASTSSQSNAVPELHSGAGQVSQPPGGGLPLGTQDAALAALAAEDNIFDELRTTKCSSWQFELRQMEKVNRILAEELGGLLSNKKKRKRRKGVGNMTGRVSPRNSSRGGNNGNGDSQSKKSPSPIHSSPLHKELASENPTSQAVVAKGDTDETDMLNPSQLGNHVSNEASESNLVQRQIMVMPPPSQPSLSSGAAGSGMTSIREEHEASQS

Source: article PMC9224670
